Some of the results follow.

Drawing on the antibiotic and cytotoxicity screens of Wong et al. (2023), this text covers cytotoxicity call and growth inhibition call for ten molecules.

The subject of one assay is HSkMC. The assay is described as follows: cytotoxicity call (relative viability < 0.9). As to conditions: 10 µM.
The next assay relates to HepG2. Kind of assay: cytotoxicity call (relative viability < 0.9). As to conditions: 10 µM.
Another assay has as its system S. aureus RN4220. Kind of assay: growth inhibition call (relative growth <= 0.2). As to conditions: 50 µM.

Regarding `C[C@H]1CN([C@@H](C)CO)C(=O)c2cc(NS(C)(=O)=O)ccc2O[C@H]1CN(C)S(=O)(=O)c1ccccc1`, the cytotoxicity call with HSkMC and with HepG2 was “inactive” throughout. Also, in the assay with S. aureus RN4220, the growth inhibition call is “inactive”.
Consider `O=C(Nc1cccc(C(F)(F)F)c1)c1ccc2ccccc2c1`, for which the cytotoxicity call in the assay on HSkMC is “inactive”. Also, in the assay with HepG2, the cytotoxicity call is “active”. Moreover, the growth inhibition call in the assay on S. aureus RN4220 was “inactive”.
As to `C#CCN(O[C@@H](/C=C/[C@@H](O)CCn1cc(-c2cccc(/C=C/C(=O)NO)c2)nn1)C1CC1)[C@@H](Cc1ccccc1)C(=O)OC`, the cytotoxicity call in the assay with HSkMC and in the assay on HepG2 was “inactive” each time. The growth inhibition call in the assay with S. aureus RN4220 is “inactive”.
With `C[C@H](CO)N1C[C@H](C)[C@@H](CN(C)C(=O)Nc2ccccc2)Oc2c(NC(=O)c3cnccn3)cccc2C1=O`, the cytotoxicity call with HSkMC and with HepG2 was “inactive” each time. For the same molecule, the growth inhibition call in the assay on S. aureus RN4220 was “inactive”.
In the case of `O=C(O)/C=C/C(=O)NN1C(=O)c2ccccc2C1=O`, the cytotoxicity call in the assay with HSkMC and in the assay on HepG2 was “inactive” each time. Also, the growth inhibition call in the assay with S. aureus RN4220 was “inactive”.
For `C[C@H](CO)N1C[C@H](C)[C@H](CN(C)C(=O)Nc2ccc(C(F)(F)F)cc2)Oc2ccc(NC(=O)Cc3cn(C)c4ccccc34)cc2CC1=O`, the cytotoxicity call with HSkMC and with HepG2 was “inactive” each time. The growth inhibition call in the assay on S. aureus RN4220 is “inactive”.
Turning to `C[C@@H]1CN([C@@H](C)CO)C(=O)Cc2cc(NS(C)(=O)=O)ccc2O[C@@H]1CN(C)C(=O)Nc1ccccc1`, the cytotoxicity call in the assay with HSkMC and in the assay on HepG2 was “inactive” in each case. The growth inhibition call in the assay on S. aureus RN4220 is “inactive”.
As for `C[C@H]1CCCCO[C@@H](CN(C)C(=O)Nc2cccc3ccccc23)[C@@H](C)CN([C@@H](C)CO)C(=O)c2cc(NS(=O)(=O)c3ccccc3)ccc2O1`, the cytotoxicity call in the assay on HSkMC and with HepG2 was “inactive” each time. Further, the growth inhibition call with S. aureus RN4220 was “inactive”.
`Cc1cccc(S(=O)(=O)N2C[C@H](O)COC[C@@H]3O[C@H](CC(=O)NCc4ccc5c(c4)OCO5)CC[C@H]32)c1`: the cytotoxicity call in the assay with HSkMC and in the assay with HepG2 was “inactive” throughout. Also, the growth inhibition call with S. aureus RN4220 was “inactive”.
Consider `COC(=O)N/N=C/c1ccc([N+](=O)[O-])o1`, for which the cytotoxicity call in the assay on HSkMC (human skeletal muscle cells) and in the assay on HepG2 was “inactive” each time. Further, the growth inhibition call in the assay with S. aureus RN4220 was “inactive”.
